# “And” between values parts separate entries of the source, which are not always exact repeats. Equal entries are not always repeated. Where a structure was tested more than once in an assay, its records may differ in their call. The source made the active and inactive calls. Unless noted, calls follow the shape of the dose curve; as a rule, active = well fitted curve in the direction sought with a large enough effect in the repeat runs; inconclusive = weak or mixed curves; inactive = no such curve, though single readings can be large; an effect the other way counts as inactive or inconclusive.
# What was measured:
# [1] = qHTS assay to identify small molecule antagonists of the thyroid receptor (TR) signaling pathway (AID 743065); conditions: GH3.TRE-Luc, T3-stimulated luciferase inhibition, 23.5 h; series mostly up to 70.3 µM; also: nearly all actives have a fitted effect of over 55% in size; also: potency is read from the fitted curve at half-maximal effect; as to activity, negative = inhibition: % is scaled to controls: 0 for no effect and ±100 for the full control effect
# Procedure, shortened: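 GH3.TRE-Luc rat pituitary cells carrying two TR response elements driving luciferase were plated for 4 h, given compound plus 1 nM T3 (final), and incubated 23.5 h at 37 C. ONE-Glo luminescence measured reporter inhibition; CellTiter-Fluor fluorescence tracked cytotoxicity.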
# [2] = qHTS assay to identify small molecule antagonists of the estrogen receptor alpha (ER-alpha) signaling pathway using the BG1 cell line - cell viability counter screen (AID 743081); conditions: BG1Luc4E2 viability, CellTiter-Fluor, 22 h; series mostly up to 70.3 µM;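 also: compound given together with 17beta-estradiol as the ER stimulus; nearly all actives have a fitted effect of over 45% in size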; also: potency is read from the fitted curve at half-maximal effect; as to activity change, negative = cytotoxicity: % is scaled to controls: 0 for no effect and ±100 for the full control effect
# [3] = biological target: Estrogen receptor (Homo sapiens) (UniProt P03372); test: qHTS assay to identify small molecule antagonists of the estrogen receptor alpha (ER-alpha) signaling pathway (AID 743069; active = well fitted curve in the direction sought with a large enough effect in the signal ratio in the repeat runs, not every such curve was filed as active; inconclusive = weak or mixed curves, or effect the other way; inactive = no such curve, though single readings can be large or run the other way; the % refers to the signal ratio; also: potency is read from the fitted curve at half-maximal effect); conditions: HEK293 ER-alpha-UAS-bla, beta-lactamase ratio, antagonist mode; activity, negative = inhibition: at 69.4 µM (top of the series) unless noted
# UniProt P03372, sequence (P03372 whole entry, looked up): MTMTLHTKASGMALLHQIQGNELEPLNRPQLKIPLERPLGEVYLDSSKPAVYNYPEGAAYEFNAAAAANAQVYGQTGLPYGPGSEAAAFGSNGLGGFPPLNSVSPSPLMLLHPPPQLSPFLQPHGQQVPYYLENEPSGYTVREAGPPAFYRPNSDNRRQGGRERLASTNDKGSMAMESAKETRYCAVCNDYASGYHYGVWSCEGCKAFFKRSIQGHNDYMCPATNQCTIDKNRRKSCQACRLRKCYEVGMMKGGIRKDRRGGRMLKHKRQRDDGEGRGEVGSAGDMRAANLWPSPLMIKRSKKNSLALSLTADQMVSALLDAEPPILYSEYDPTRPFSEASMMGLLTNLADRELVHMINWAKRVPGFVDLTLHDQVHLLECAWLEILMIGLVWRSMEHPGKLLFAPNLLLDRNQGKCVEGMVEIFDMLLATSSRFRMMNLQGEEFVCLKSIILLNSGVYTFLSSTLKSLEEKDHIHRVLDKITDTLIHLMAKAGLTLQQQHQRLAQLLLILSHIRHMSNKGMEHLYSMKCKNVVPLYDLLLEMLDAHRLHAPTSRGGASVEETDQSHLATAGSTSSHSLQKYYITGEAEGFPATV
# Procedure, shortened: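 Screening used a UAS-driven beta-lactamase reporter integrated into HEK293 cells expressing ER-alpha, stimulated with 17beta-estradiol alongside test compounds over 18 hr at 37C; signal came from LiveBLAzer B/G FRET fluorescence.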
# [4] = biological target: Estrogen receptor (Homo sapiens) (UniProt P03372); test: qHTS assay to identify small molecule agonists of the estrogen receptor alpha (ER-alpha) signaling pathway using the BG1 cell line (AID 743079); conditions: BG1Luc4E2 cells, ERE-luciferase agonist, 22 h; activation: at 70.3 µM (top of the series) unless noted; also: nearly all actives have a fitted effect of over 20% in size; also: potency is read from the fitted curve at half-maximal effect
# [5] = qHTS assay to identify small molecule antagonists of the thyroid receptor (TR) signaling pathway - cell viability counter screen (AID 743064); conditions: GH3.TRE-Luc viability, CellTiter-Fluor, 24 h; activity change, negative = cytotoxic: at 70.3 µM (top of the series) unless noted; also: nearly all actives have a fitted effect of over 50% in size; also: potency is read from the fitted curve at half-maximal effect
# Procedure, shortened: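 In rat pituitary GH3.TRE-Luc reporter cells co-exposed to compound and 1 nM T3 for 23.5 h, cytotoxicity was assessed with CellTiter-Fluor in the same wells, read by fluorescence.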
# [6] = qHTS assay to identify small molecule antagonists of the estrogen receptor alpha (ER-alpha) signaling pathway - cell viability counter screen (AID 743074; calls by dose curve; also: nearly all actives have a fitted effect of over 45% in size; also: potency is read from the fitted curve at half-maximal effect); conditions: ERalpha-bla HEK293 viability, CellTiter-Glo luminescence, 18 h; series mostly up to 69.4 µM
# [7] = qHTS assay to identify aromatase inhibitors - cell viability counter screen (AID 743084); conditions: MCF-7 aro ERE viability, CellTiter-Fluor, 24 h; activity change, negative = cytotoxicity: at 70.3 µM (top of the series);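 also: cells stimulated with testosterone during compound exposure; nearly all actives have a fitted effect of over 55% in size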; also: potency is read from the fitted curve at half-maximal effect
# Aromatase (Homo sapiens) = Aromatase (Homo sapiens) (UniProt P11511); test: qHTS assay to identify aromatase inhibitors (AID 743083); conditions: MCF-7 aro ERE, testosterone-driven ERE luciferase, 24 h; series mostly up to 70.3 µM; also: nearly all actives have a fitted effect of over 55% in size; also: potency is read from the fitted curve at half-maximal effect
# UniProt P11511, sequence (P11511 whole entry, looked up): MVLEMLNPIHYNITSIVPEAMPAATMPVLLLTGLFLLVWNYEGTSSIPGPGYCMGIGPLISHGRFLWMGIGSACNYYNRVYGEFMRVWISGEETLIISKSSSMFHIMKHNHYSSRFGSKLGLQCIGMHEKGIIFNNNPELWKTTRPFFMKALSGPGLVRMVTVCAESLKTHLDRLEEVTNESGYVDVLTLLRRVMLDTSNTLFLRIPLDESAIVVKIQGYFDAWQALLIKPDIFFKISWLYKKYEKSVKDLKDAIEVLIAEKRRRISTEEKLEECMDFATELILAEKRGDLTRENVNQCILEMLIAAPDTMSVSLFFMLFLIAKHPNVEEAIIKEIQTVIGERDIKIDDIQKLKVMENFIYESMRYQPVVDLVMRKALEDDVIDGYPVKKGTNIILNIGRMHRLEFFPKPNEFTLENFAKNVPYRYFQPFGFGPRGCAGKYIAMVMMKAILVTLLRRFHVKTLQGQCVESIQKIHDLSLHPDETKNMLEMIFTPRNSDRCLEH
# [8] = biological target: Estrogen receptor (Homo sapiens) (UniProt P03372); test: qHTS assay to identify small molecule agonists of the estrogen receptor alpha (ER-alpha) signaling pathway (AID 743075; calls by dose curve; also: % is scaled to controls: 0 for no effect and ±100 for the full control effect); conditions: HEK293 ER-alpha-UAS-bla, beta-lactamase FRET ratio, 18 h; series mostly up to 70.1 µM
# [9] = qHTS assay to identify small molecule antagonists of the estrogen receptor alpha (ER-alpha) signaling pathway using the BG1 cell line (AID 743080; calls by dose curve;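 also: BG1 cells stimulated with 17beta-estradiol alongside compound; potency is read from the fitted curve at half-maximal effect; nearly all actives have a fitted effect of over 25% in size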); conditions: BG1Luc4E2 ERE-luciferase antagonist mode, luminescence; activity change, negative = inhibition: at 70.3 µM (top of the series) unless noted
# Procedure, shortened: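 Readout is ONE-Glo luminescence, taken 30 min at room temperature after reagent addition, preceded by a CellTiter-Fluor viability read; BG1-Luc-4E2 cells had received compound and 17beta-estradiol for 21.5 h at 37 C.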
# [10] = system: thyroid hormone receptor (rat, GH3 cells); test: qHTS assay to identify small molecule agonists of the thyroid receptor (TR) signaling pathway (AID 743066; calls by dose curve; also: % is scaled to controls: 0 for no effect and ±100 for the full control effect); conditions: GH3.TRE-Luc cells, TR agonist luciferase, 24 h; activation: at 83.9 µM (top of the series) unless noted
# Tags tell the direction and shape of the fitted curve or compound fluorescence and quenching.
compound,measurement,setting,value
OCCC(F)(F)C(F)(F)C(F)(F)C(F)(F)C(F)(F)C(F)(F)F,Potency,[1],inactive
same,Potency,[2],inactive
Cc1ccc(-n2nc(C(C)(C)C)cc2NC(=O)Nc2ccc(OCCN3CCOCC3)c3ccccc23)cc1,Potency,[1],"inconclusive: 33.5 µM [inhibitor, single point]"
same,Potency,[3],active: 13.4 µM [inconclusive]
same,Potency,[4],"inconclusive: 0.075 µM [activator, partial curve, poor fit]"
C[C@@H]1O[C@@H](OC[C@H]2O[C@@H](Oc3c(-c4ccc(O)c(O)c4)oc4cc(O)cc(O)c4c3=O)[C@H](O)[C@@H](O)[C@@H]2O)[C@H](O)[C@H](O)[C@H]1O,Potency,[5],"inconclusive: 16.8 µM [cytotoxic, single point] and inconclusive: 43.6 µM [cytotoxic, partial curve, poor fit]"
same,Potency,[6],"inconclusive: 0.379 µM [rising, full curve, poor fit]"
same,Potency,[2],"inconclusive: 61.6 µM [cytotoxic, single point]"
same,Potency,[7],"inconclusive: 27.5 µM [cytotoxic, partial curve]"
CCCCCCCCCCCCCCN(CCO)CCO,Potency,[5],active: 19.3 µM
same,Potency,[6],active: 54.9 µM
same,Potency,[2],inactive
same,Potency,Aromatase (Homo sapiens),active: 27.3 µM
same,Potency,[7],active: 43.3 µM
O=Cc1c(Cl)cccc1Cl,Potency,[1],inactive
same,Potency,[3],inactive
CCCCN1C[C@H](O)[C@@H](O)[C@H](O)[C@H]1CO,Potency,[5],"inconclusive: 0.266 µM [rising, partial curve, poor fit]"
same,Potency,[2],"inconclusive: 0.003 µM [rising, full curve, poor fit]"
Cc1ccc([N+](=O)[O-])c(C)c1,Potency,[5],inactive
same,Potency,[4],active: 68.6 µM
CC(=O)Oc1ccc(C(C)=O)cc1,Potency,[1],inactive
same,"activity, negative = inhibition",[3],inconclusive: 22.6% [at 79.1 µM]
same,Potency,[6],"inconclusive: 4.54 µM [rising, full curve, poor fit]"
Nc1c2c(nc3ccccc13)CCCC2O (stereo not given),Potency,[5],"inconclusive: 0.376 µM [rising, full curve, poor fit]"
same,Potency,[8],inactive
Nc1ccc(C(=O)O)c(O)c1,Potency,[1],inactive
COc1ccc(-n2nc(C(F)F)cc2-c2ccc(S(C)=O)cc2)cc1 (stereo not given),Potency,[1],inconclusive: 61.1 µM [inhibitor]
same,Potency,[3],"inconclusive: 4.9 µM [activator, full curve, poor fit]"
same,Potency,[9],"inconclusive: 7.7 µM [rising, full curve, poor fit]"
same,Potency,[7],"inconclusive: 77 µM [cytotoxic, partial curve, poor fit]"
Cc1ccc(C)c(N)c1,Potency,[1],inactive
same,Potency,[4],active: 77 µM
CC(C)=CC(=O)C=C(C)C,Potency,[5],"inconclusive: 76.4 µM [rising, single point]"
same,Potency,[6],inactive
[Cu+],Potency,[1],"inconclusive: 68.6 µM [inhibitor, single point]"
same,Potency,[10],inactive
same,Potency,[6],inactive
same,activation,[4],inconclusive: 12.8% [phenotype inactive]
same,Potency,Aromatase (Homo sapiens),"inconclusive: 54.5 µM [inhibitor, partial curve, poor fit]"
same,Potency,[7],"inconclusive: 43.3 µM [cytotoxic, partial curve, poor fit]"
CCN(CC)CCNC(=O)COc1ccc(OC)cc1,Potency,[5],inactive
same,Potency,[4],active: 23.7 µM
O=c1[nH]c2ccccc2n1CCCN1CCN(C(c2ccccc2)c2ccccc2)CC1,Potency,[5],active: 23.7 µM
same,Potency,[2],"inconclusive: 29.8 µM [cytotoxic, partial curve, poor fit]"
O=C(CN1CCNCC1)NC1CCCCC1,Potency,[5],inactive
same,Potency,[8],inactive
same,Potency,[2],inactive
CC(C(=O)O)c1ccc2c(c1)[nH]c1ccc(Cl)cc12 (stereo not given),Potency,[1],inactive
same,Potency,[6],inactive
CCCCCCCCc1ccc(S(=O)(=O)O)cc1,Potency,[5],inactive
same,Potency,[6],"inconclusive: 38.6 µM [cytotoxic, partial curve, poor fit]"
OCC(F)(F)F,Potency,[5],"inconclusive: 28.8 µM [rising, single point]"
same,Potency,[7],inactive
CC[C@@H]([C@H](C)O)n1ncn(-c2ccc(N3CCN(c4ccc(OC[C@@H]5CO[C@@](Cn6cncn6)(c6ccc(F)cc6F)C5)cc4)CC3)cc2)c1=O,Potency,[5],"inconclusive: 33.5 µM [cytotoxic, single point]"
same,Potency,[2],"inconclusive: 33.5 µM [cytotoxic, single point]"
CCNCCO,Potency,[1],inactive
same,Potency,Aromatase (Homo sapiens),inactive
COc1ccc(CCN(C)CCCC(C#N)(c2cc(OC)c(OC)c(OC)c2)C(C)C)cc1OC (stereo not given),Potency,[1],"inconclusive: 33.5 µM [inhibitor, single point]"
same,Potency,[2],"inconclusive: 33.5 µM [cytotoxic, partial curve, poor fit]"
same,Potency,[7],"inconclusive: 18.8 µM [cytotoxic, partial curve, poor fit]"
